Screen size: about 410,000 compounds; about 7,200 (1.8%) were called active. The inconclusive results got no clear call from the source; some entries with a clear call stand among them for comparison. Calls follow the shape of the dose curve; as a rule, active = well fitted activation curve with a large enough effect; inconclusive = small, poorly fitted or top-dose-only effect, or another doubt; inactive = no such curve, though single readings can be large or run the other way. No potency is given beside an inconclusive call; the fits are too rough.
Experiment: qHTS of TDP-43 Inhibitors; also: nearly all actives have a fitted effect of over 50% in size
Settings: TDP-43 expressing yeast growth rescue, BacTiter-Glo, 24 h; series mostly up to 46.1 µM
Procedure, shortened: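 Readout is BacTiter-Glo luminescence of cell growth, so inhibitors register as activators. TDP-43-expressing yeast at OD600=0.02 in galactose medium, after raffinose pregrowth to mid-log, were incubated with compound for 24 hr at 30 deg C.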
Potency is read from the fitted curve at half-maximal effect; tags tell the direction and shape of the fitted curve.

Row | SMILES | Potency
1 | CCOC(=O)c1cc(S(=O)(=O)N2CCN(c3ccc(C)cc3C)CC2)[nH]n1 | active: 14.1 µM
2 | Cc1ccc(OCCNS(=O)(=O)c2cccs2)cc1 | inconclusive [activator, partial curve, poor fit]
3 | O=C(C1CCCN(S(=O)(=O)c2cccc3nsnc23)C1)N1CCN(c2ccccc2Cl)CC1 (stereo unspecified) | inconclusive [activator, partial curve]
4 | O=S(=O)(Nc1ccc(N2CCOCC2)cc1)c1cc(Cl)ccc1Cl | active: 14.1 µM
5 | CC(=O)N1CC(=O)N=C1SCC(=O)Nc1nc(C)c(-c2ccccc2)s1 | inactive
6 | O=C(CN1CC(c2ccccc2)CC1=O)OCc1cccc(Br)c1 (stereo unspecified) | inconclusive [activator, single point]
7 | Cc1ccc2c(c1)N(C(=O)Nc1cccc(C)c1C)CCO2 | inconclusive [activator, partial curve]
8 | O=C(NNC(=O)c1cccc2ccccc12)c1cccc(Cl)c1 | inconclusive [activator, full curve]
9 | COc1ccc2c(c1)c1nc3ccccc3nc1n2CC(=O)OC(C)C | inconclusive [activator, partial curve]
10 | CC1CCN(C(=O)c2ccc(N3C(=O)c4ccccc4C3=O)cc2)CC1 | inconclusive [activator, partial curve]
11 | CCC(=O)NC(c1ccc(C)cc1)c1cc([N+](=O)[O-])c2cccnc2c1O (stereo unspecified) | inconclusive [activator, single point]
12 | COc1ccccc1/C=C(/C(=O)OCC(=O)Nc1ccccc1C)c1ccccc1 | inconclusive [activator, full curve, poor fit]
13 | COc1cccc(-c2nc(SCC(=O)NC3CCCC3)c(-c3ccccc3)[nH]2)c1 | inactive
14 | CC(Oc1cccc(Br)c1)C(=O)NNC(=O)c1ccccn1 (stereo unspecified) | active: 25.1 µM
15 | COc1ccc(-c2cnn3c(C)cc(C)nc23)cc1OC | inconclusive [activator, partial curve]
16 | CCc1ccccc1-n1ncc(C(=O)Nc2ccccc2OC)c1C | inconclusive [activator, single point]
17 | CCCCN(CC)C(=O)c1cc2cc3ccc(OC)cc3nc2o1 | inconclusive [activator, partial curve]
18 | CC(C)c1ccc(OCC(=O)NNC(=S)NC(=O)c2cccs2)c(Br)c1 | inconclusive [activator, partial curve]
19 | CCCn1c(SC(C)C(=O)NCC2CCCO2)nc2sc(CC)cc2c1=O (stereo unspecified) | inconclusive [activator, partial curve]
20 | CCC(CC)C(=O)N(C)c1c(C)nc2c(OCC=C(C)C)cccn12 | inconclusive [activator, full curve, poor fit]
21 | O=C(c1ccc(CS(=O)Cc2ccc(Cl)cc2)o1)N1CCN(C2CCCCC2)CC1 (stereo unspecified) | inactive
22 | O=S(=O)(c1ccc(Cl)cc1)N1CCCN(c2ccc(C(F)(F)F)cn2)CC1 | inconclusive [activator, single point]
23 | O=C(/C=C/c1ccccc1Cl)c1ccc[nH]1 | inactive

Row | SMILES | Potency
24 | Cn1c(/C(C#N)=N/O)nc2ccccc21 | inactive
25 | COc1cc(C(=O)N2CCc3c([nH]c4ccccc34)C2c2ccc(C)cc2)cc(OC)c1OC (stereo unspecified) | inactive
26 | CN1CCN(Cn2cc(/C=C/C(=O)c3ccccc3)c3ccccc32)CC1 | inconclusive [activator, partial curve]
27 | COCCCNC(=O)CSc1nc2ccccc2c(=O)n1Cc1ccc2c(c1)OCO2 | inactive
28 | Cc1cc(=O)oc2c3c4c(cc12)OCCN4CCC3 | inconclusive [activator, single point]
29 | CSc1nc2c(c(=O)[nH]c(=O)n2C)n1Cc1ccc(Cl)cc1 | inconclusive [activator, partial curve]
30 | CCOc1ccc(CCNC(=O)CCc2c(C)nc3cc(-c4ccccc4OC)nn3c2C)cc1 | inactive
31 | CCOc1ccc(-c2nc(N)nc(C)c2-c2ccc(Cl)cc2)c(O)c1 | inconclusive [activator, single point]
32 | FC(F)(F)c1cccc(Oc2nc(-c3ccccc3)nnc2C(F)(F)F)c1 | inconclusive [activator, partial curve]
33 | CCc1ccccc1NC(=O)CN1CCN(CC(=O)Nc2cc(C)ccc2OC)CC1 | inactive
34 | COc1ccc(N/C(C)=C/C(=S)Nc2ccccc2)cc1 | active: 12.6 µM
35 | N#CC(OC(=O)c1ccccc1)c1cccc([N+](=O)[O-])c1 (stereo unspecified) | inconclusive [activator, single point]
36 | Cc1ccc(N2C(=O)CC(Sc3nccc(C)n3)C2=O)cc1 (stereo unspecified) | inactive
37 | CCN(Cc1ccccc1)S(=O)(=O)c1ccc2c(c1)CC(C)N2C(=O)C1CCC1 (stereo unspecified) | inconclusive [activator, partial curve]
38 | COc1ccc(-c2nc(CCNS(=O)(=O)c3ccc4c(c3)OCCO4)cs2)cc1 | active: 12.6 µM
39 | Oc1ccc(/C=C/c2cc(O)cc(O)c2)cc1 | inactive
40 | CC1(C)Cc2cccc(OCC(=O)N3CCN(c4ccc(F)cc4)CC3)c2O1 | inconclusive [activator, single point]
41 | COC(=O)c1ccc(Oc2nc(C)cc(Oc3ccccc3)n2)cc1 | inconclusive [activator, single point]
42 | O=c1ccc2ccccc2n1Cc1cccc(F)c1 | inconclusive [activator, partial curve]
43 | CCCOC(=O)c1ccc(NC(=O)/C=C/c2cccs2)cc1 | inconclusive [activator, partial curve]
44 | CCOc1ccccc1NC(=O)Cc1noc2ccc(C)cc12 | inconclusive [activator, full curve]
45 | O=C(COc1ccccc1C(=O)NCC1CCCO1)Nc1ccc(Cl)cc1Cl (stereo unspecified) | inconclusive [activator, single point]
46 | Cc1ccc(O)c(NC(=O)c2cc(-c3ccccc3O)no2)c1 | inconclusive [activator, single point]

Reference: PubChem BioAssay AID652104 (National Center for Advancing Translational Sciences (NCATS), 2013)
